The source gives no read counts; variants with many changes may rest on few reads.
B1: OR4K15 (parent)
chain: GUUAACGGUCAUAGGCCAUGGAAACUAGGAGCACCAUUUCGCUGCCAGUGAAGAAAUGAACAAAGAAAAUCUGGGCCAGGCAGGCAUCAAAAGAAAUAGUCUUGCGCUCAACCAGAAAGUCUGUAAUCAUUUUAAGGGUA

Variants of: B1
Experiment: self-cleavage, relative activity (ratio to wild type); higher = more cleavage; in vitro, sequencing; the parent is a self-cleaving ribozyme

Variant | self-cleavage
GUAAACGGUCAUAGGCCAUGGAAACUAGGAGCACCAUAUCGCUGCCAGUGAAGAGAUGAACAAAGAAAAUCUGGGCCAGGCAGGCAUCAAAAGAAAUAGUCUUGCGCUCAACCAGAAAGUCUGUAAUCAUCUUAAGGGUA [U3A U38A A55G U131C] | 0.76
GUUAACGGUCAUAGGCCAUGGAAACUAGGGGCACCAUUUCGCUGCCAGUGAAGAAAUGAACAAAGAAAAUCUGGGCCAGGCAGGCAUCAAAGGAAAUAGUCUUGCGCUCAACCGGAAAGUCUGUAAUCAUUCUAAGGGUA [A30G A92G A114G U132C] | 0.41
GUUAACGGUCAUAGGCCAAGGAAACUAGGGGCACCAUUUCGCUGCCAGUGAAGAAAUGAACAAAGAAAAUCUGGGCCAGGCAGGCAUCAAGAGAAAUAGUCCUGCGCCCAACCAGAAAGUCUGUAAUCAUUUUAAGGGUA [U19A A30G A91G U102C U108C] | 0.05
GUUAACGGUCAUAGGCCAUGGAAACUAGGAGCACCAUUUCGCUGCCAGUGAAGGGAUGAACAAAGAAAACCUGGGCCAGGCAGGCAUCAAAAGAAAUAGUCUUGCGCUCAACCAGAAAGUCUGUAAUCAUUUUAAGGGUA [A54G A55G U70C] | 0.9
GUUAACGGUCAUAGGCCAUGGAAACUAGGAGCACCAUUUCGCUGCCAGUGAAGAGAUGAACAAAGAAGAUCUGGGCCAGGCAGGCAUCAAGAGAAAUAGUCUUGUGCUCGACCAGAAAGUCUGUAAUCAUUUUAAGGGUA [A55G A68G A91G C105U A110G] | 0.01
GUUAACGGUCAUAGGCUAUGGAAACUAGGAGCACCGUUGCGCUGCCAGUGAAGAAAUGGACAAAGAAAAUCUGCGCCAAGCAGGCAUCAAAAGAAAUAGUCUUGCGCUCAACCAGAAAGUCUGUAAUCAUUUUAAGGGUA [C17U A36G U39G A59G G74C G79A] | 0.37
GUUAACGGUCAUAGGCCAUGGAAACUAGGAGCACCAUUUCGCUGCCAGUGAAGAAAUGAACAAAGAAAAUCCGGGCCAGGCAAGCAUCAAAAGAAAUAGUCCUGCGCUCAACCAGAAAGUCUGUAAUCAUUUUAAGGGUA [U72C G83A U102C] | 0.46
GUUAACGGUCAUAGGCCAUGGAAACUAGGAGCACCAUUUCGCAGCCAGUGUAGAAAUGAACAAAGAAGAUCUGGGCCAGGCAGGCAUCAAAAGAAAUAGUCUUGCGCUCAACCAGAAAGUCUGUAAUCAUUUUAAGGGUA [U43A A51U A68G] | 1.93
GUUAACGGUCAUAGGCCAUGGUAACUAGGAGCACCAUUUCGCUGCCAGUGAAGAAAUGAACAAAGAAAAUCUGGGCCAGGCGGGCAUCAAAAGAAAUAGUCUUGCGCUCAACCAGAAAAUCUGUAAUCAUUUUAAGGGUA [A22U A82G G119A] | 0.62
GUUAACGGUCAUAGGCCAUGGAAACUAGGAGCACCAUUUCGCUGCCAGUGAAGAAAUGAACAAGGAAAAUCUGGGCCAGGCAGGCAUCAAGAGGAAUAGUCUUGCGCUCAACCAGAAAGUCUGUAAUCAUUUUAAGGGUA [A64G A91G A94G] | 1.78
GUUAACGGUCAUAGGCCAUGGAAACUAGGAGCACCAUUUCGCUGCCAGUGAAGAGAUGAACAAAGAAGAUCUGGGCCAGGCAGGCAUCGAAAGAAAUAGUCUUGCGCUCAACCGGAAAGUCUGUAAUCAUUUUAAGGGUA [A55G A68G A89G A114G] | 0.63
GUUAACGGUCAUAGGCCAUGGAAACUAGGAGCACCACUCCGCUGCCAGUGAAGAAAUGAACAAGGAAAAUCUGGGCCAGGCAGGCAUCAAAGGAAAUAGUCUUGCGCUCAACCAGAAAGUCUGUAAUCAUUUUAAGGGUA [U37C U39C A64G A92G] | 0.85
GUUAACGGUCAUAGGCCAUGGAAACUAGGAGCACCAUUUCGCUGCAAGUGAGGAAAUGAACAAAGAAAAUCUGGGCCAGGCAGGCAUCUAAAGAAAUAGUCUUGCGCUCAACCAGAAAGUCUGUAAUCAUUUUAAGGGUA [C46A A52G A89U] | 1.02
GUUAACGGUCGUAGGCCAUGGAAACUAGGAGCACCAUUCCGCUGCCAGUGAAGAAAUGAACAAAGAAAAUCUGGGCCAGGCAGGCAACAAAAGAAAUAGUCUUGCGCUCAACCAGAAAGUCUGUAAUCAUUUUAAGGUUA [A11G U39C U87A G138U] | 1.16
GUUAACGGUCAUAGGCCAUAGAAACUAGGAGCACCAUUCCGCUGCCAGUGAAGGAAUGAACAAAGAAAAUCUGGGCCAGGCAGGCAUCAAAAGAAAUAGUCUUGCGCUCAACCAGAUAGUCUGUAAUCAUUUUAAGGGUA [G20A U39C A54G A117U] | 1.06
GUUAACGGACAUAGGCCAUGGAAACUAGGAGCACCAUUUCGCUGCCAGUGAAGGAAUGAACAAAGAAAAUCUGGGCCAGGCAGGCAUCAAGAGAAAUAGUCUUGCGCUCAACCAGAAAGUCUGUAAUCAUUUUAAGGGUA [U9A A54G A91G] | 1.24
GUUAACGGUCAUAGGCCAUGGGAACUAGGAGCACCAUUUCGCUGCCAGUGAAGAAAUGAACAAAGAAAAUCUGGGCCAGGCGGGCAUCAAAAGAAAUAGUCUUGCGCACAUCCAGAAAGUCUGUAAUCAUUUUAAGGGUA [A22G A82G U108A A111U] | 0
GUUAACGGUCAUAGGCCACGGAAACUAGGAGCACCAUUUCGCUGCCAGUGAAGAAAUGAACAGAGAAAAUCUGGGCCAGGCAGGCAUCAAAAGAGAUAGUCUUGCGCUCAACCAGAAAGUCUGUAAUCAUUUUAAGGGUA [U19C A63G A95G] | 1.02
GUUAACGGUCAUAGGCCAUGGAAACUAGGAGCACCAUUUCGCUGCCAGUGGAGAAAUGAGCAAAGAAAAUCUGGGCCAGGCAGGCAUCAAAAGAAAUAGUCUUGCGCUUAACCAGAAAGUCUGUAAUCGUUUUAAGGGUA [A51G A60G C109U A129G] | 0.13
GUUAACGGUCAUAGCCCAUGGAAACUAGGAGCACCAUUUCGCUGCCAGUGAAGAAAUGGACAAAGAAAAUCUGGGCCAGGCAGGCAUCAAAAGAAAUAGUCUUGCGCCCAACCAGAAAGUCUGUAAUCAUUUUGAGGGGA [G15C A59G U108C A134G U139G] | 0.01
GUUAACGGUCAUAGGCCACGGAAACUAGGAGCACCAUUUCGCUGCCAGUGAAGAAAUGAACAAAGAAAAUCCGGGCCAGGCAGGCAUCAAAAGAAGUAGUCUUGCGCUCAACCAGAAAGUCUGUAAUCAUUUUAAGGGUA [U19C U72C A96G] | 0.02

Variant | self-cleavage
GUUAACGGUCAUAGGCCGUGGAAACUAGGAGCACCAUUUCGCUGCCAGUGAAGAAAUGAACAAAGAAAAUCUGGACCAGGCAGGCAUCAAGAGAAAUAGUCUUGCGCUCAACCAGAAAGUCUGUAAUCAUCUUAAGGGUA [A18G G75A A91G U131C] | 0.14
GUUAACGGUCAUAGGCCAUGGAAACUAGGAGCACCAUUUCGCUGCCGGUGAAGAAAUGAACAAAGAAAAUCUGAGCCAGGCAGGCAUCAAAAGAAAUAGUCUUGCGCUCAACCAGAGAGUCUGUAAUCAUUUUAAGGGUA [A47G G74A A117G] | 0.13
GUUAACGGUCAUAGGCCACGGAAACUAGGAGCACCAUUUCGCUGCCAGUGAAGAAAUGAACAAUGAAAAUCUGGGCCAGGCAGGCAUCAAAGGAAAUAGUCUUGCGCUCAACCAGAAGGUCUGUAAUCAUUUUAAGGGUA [U19C A64U A92G A118G] | 0.5
GUUAACGGUCAUAGGCCAUGGAAACUAGGAGCACCAUUUCGCUGCCAGUGGAGAAAUGAACAAAGAAAAUCUGGGCCAGGCAGGCAUCAAUAGAAAUAGUCCUGCGCUCAACCAGAAAGUCUGUAAUCAUUUUAAGGGUA [A51G A91U U102C] | 1.92
GUUAAUGGUCGUGGGCCAUGGAAACUAGGAGCACCAUUUCGCUGCCAGUGAAGAAAUGAACAAAGAAAAUCUGGGCCAGGCAGGCAUCAAAAGAAAUAGUCUUGCGCUCAACCUGAAAGUCUGUAAUCAUUUUAAGGGUA [C6U A11G A13G A114U] | 0.12
GUUAACGGUCAUAGGCCAUGGAAACUAGGAGCACCAUUUCGCUGCCAGUGAAGAAAUGAGCAAAGAAAAUCUGGGCCAGGCAGGCAUCAAAAGAAAUAGCCUUGCGCUCAACCAGAAAGUCUGGAAUCAUUUUAAGGGUA [A60G U100C U124G] | 0.96
GUUAACGGUCAUAGGCCAUGGCGACUAGGGGCACCAUUUCGCUGCCAGUGAAGAAAUGAACAAAGAAAAUCUGGGCCAGGCAGGCAUCAAAAGAAAUAGUCUUGCGCUCAACCAGAAAGUCUGUAAUCAUUUUAAGGGUA [A22C A23G A30G] | 1.35
GUUAACGGUCAUAGGCCAUGGAGACUAGGGGCACCAUUUCGCUGCCAGUGAAGAAAUGAGCAAAGAAAAUCUGGGCCAGGCAGGCAUCAAAAGAAAUAGUCUUGCGCUCAACCAGAAAGUCUGUGAUCAUUUUAAGGGUA [A23G A30G A60G A125G] | 0.05
GUUAACGGUCAUAGGCCUUGGAAACCAGGAGCGCCAUUCCGCUGCCAGUGAAGAAAUGAACAAAGAAAAUCUGGGCCGGGCAGGCAUCAAAAGAAAUAGUCUUGCGCUCAACCAGAAAGUCUGUAAUCAUUUUAAGGGUA [A18U U26C A33G U39C A78G] | 0.19
GUUAACGGUCAUAGGCCAUGGAAACUAGGAGCACCAUUUCGCUGCCAGUGAAGAAAUGAACAGAGAAAAUCUGGGCCAGGCAGGCGUCAAAAGGAAUAGUCUUGCGCUCAACCAGAAAGUCUGUAAUCAUUUUAAGGGUA [A63G A86G A94G] | 1.36
GUUAACGGUCUUAGGCCAUGGAAACUAGGAGCACCAUUUCGCUGGCAGUGAAGAAAUGAACAAAGAAAAUCUGGGCCAGGCAGGCAUCAAAAGAAAUAGUCUUGCGCUCAACCAGUAAGUCUGUAAUCAUUUUAAGGGUG [A11U C45G A116U A140G] | 0.11
GUUAACGGUCAUAGGCCAUGGAAACUGGGAGCACCAUUUCGCUGCCAGUGAAGAAAUGAACAAAGAAAAUCUGGGCCAGGCAGGCAUCUGAAGAAAUAGUCUUGCGCUCAACCAGAAAGUCUGUAAUCGUUUUAAGGGUA [A27G A89U A90G A129G] | 0.93
GUUAACGGUCAUAGGCCACGGAAACUAGGAGCACCAUUUCGCUGCCAGUGAAUAAAUGAACAGAGAAAAUCUGGGCCAGGCAGGCUUCAAAAGAAAUAGUCUUGCGCUCAACCAGAAAGUCUGUAAUCAUUUUAAGGGUA [U19C G53U A63G A86U] | 1.57
GUUAACGGUCAUAGGUCAUGGAAACUAGGAGCACCAUUUCGCUGCCAGUGAAGAAAUGAACAAAGAAAAUCUGGGCCAGGCAAGCAUCAAAAGAAAUAGUCUCGCGCUCAACCAGAAAGUCUGUAAUCAUUUUAAGGGUA [C16U G83A U103C] | 0.22
GUUAACGGUCAUAGGCCUCGGAAACUGGGAGCACCAUUUCGCUGCCAGCGAAGAAAUGAACAAAGAAAAUCUGGGCCAGGCUGGCAUCAAAAGAAAUGGUCUUGCGCCCAACCAGAAAGUCUGUAAUCAUUUUAAGGGUG [A18U U19C A27G U49C A82U A98G U108C A140G] | 0.01
GUUAACGGUCAUAGGCCAUGGAAACUAGGAGCACCAUUUCGCUGCCAGUGAAGAAAUGAACAAAGAUAAUCUGGGCCAGCCAAGCAUCAAAAGAAAUAGUCUUGCGCUCAACCAGAAAGUCUGUAAUCAUUUUAAGGGUA [A67U G80C G83A] | 0.06
GUUAACGGACAUAGGCCAUGGAAACUAGGAGCACCAUUUCGCUGCCAGUGAAGAAAUGAACAAAGAAAAUCUGGGCCAGGCAGGCAUCAAAAGAAAUAGUCUCGCGCUCAACCAGAAAGUCUGUAAACAUUUUAAGGGUA [U9A U103C U127A] | 0.31
GUUAACGGUCAUAGGCCAUGGAAACUGGGAGCACCACUUCGCUGCCAGUGGAGAAAUGAACAAAGAAAAUCUGGGCCAGGCAGGCAUCAAAAGAAAUAGUCUUGCGCUCGACCAGAAAGUCUGUAAUCAUUUUAAGGGUA [A27G U37C A51G A110G] | 0.11
GUUAACGGUUAUAGGCCGUGGAAACUAGGAGCAUCAUUUCGCUGCCAGUGAAGAAAUGAACAAAGAAAACCUGGGCCAGGCAGGCAUCAAAAGAAAUAGUCUUGCGCUCAACCAGAAAGUCUGUGAUCAUUUUAAGGGUA [C10U A18G C34U U70C A125G] | 0.29
GUUAACGGUCAUAGGCCAUGGAAACUUGGAGCGCCAUUUCGCUGCCAGUGAAGAAAUGAACAAAGAAAAUCUGGGCCAGGCAGGCAUCAAAAGAAAUAGUCUUGCGCCCAACCAGAAAGUCUGUAAUCAUUUUAAGGGUA [A27U A33G U108C] | 0.03

Source: the RNAGym collection of RNA variant scans (doi:10.7554/elife.90254)
